The target in this assay is T1, RbBP5NTD (N-terminal WD40 β-propeller domain of RbBP5) (human, UniProt Q15291 10-340).
T1 construct: human RbBP5, N-terminal WD40 domain; Vector pET28-MHL; Monomeric in solution by SAXS; The mouse WD40 domain (PDB 5OV3) is said to be 100% identical; also called N-terminal domain of RbBP5; RbBP5 β-propeller domain; source: E. coli, purified by His-tag
The assay is described as follows: BLI; Octet Red; GST-tagged MLL_(RBS-SET) on anti-GST biosensors, RbBP5 constructs in solution; PBS, 0.2 mg/ml BSA, 0.1% Tween-20; steady-state analysis. Conditions: both partners purified.

The text below walks through data of PMC6755125, “The MLL1 trimeric catalytic complex is a dynamic conformational ensemble stabilized by multiple weak interactions” (Nucleic Acids Research, 2019).

B1: MLL1_(RBS-SET) ([…]), GST-tagged (domain or fragment)
chain: not shown
notes: Cloned in the vector pET28GST-LIC (GenBank EF456739 is the vector's id); Detailed procedures are in the Supplementary Data; also called MLL_(RBS-SET); MLL1-GST; source: E. coli, purified by the N-terminal GST-tag; not shown: GST, N-terminal, kept
Regarding B1, the equilibrium dissociation constant (Kd) – broadly, the concentration at which binding is half-saturated – is ~8 µM.
